Test results published in the supplement of paper PMC12230231.
± gives the standard deviation of the averaged measurements. Restriction of a single-cycle SIVsab GFP reporter by TRIM5α v1-loop variants in CRFK cells. Human variants: read share among cells still uninfected after two challenges over input, higher = gained restriction. Rhesus variants: share among infected cells over input, higher = lost restriction. Reporter dose not given per row. No active / inactive call per row; the paper calls a change when both replicates lie above its controls (mean + 2 SD of stop or wild-type variants, or the top frameshift score). Residues outside the varied loop are taken from Swiss-Prot. The paper reads the human single-substitution scores as noise; they and the rhesus combinations repeat poorly (rank correlation 0.3 to 0.4), indel scores repeat only for the top variants, rhesus substitutions well (0.9).

Test system: SIVsab (simian immunodeficiency virus of sabaeus monkeys), single-cycle GFP reporter, in CRFK cells
Experiment: enrichment among uninfected cells over input (fold); higher = stronger restriction
Conditions: library: human / rhesus combinations
Experimental: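 Pools of CRFK cells expressing variants of the TRIM5α v1 loop were challenged with the single-cycle reporter, sorted by GFP and sequenced; mean of two replicates.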

| Sequence | enrichment |
| --- | --- |
| MASGILVNVKEEVTCPICLELLTQPLSLDCGHSFCQACLTANHKKSMLDKGESSCPVCRISYQPENIRPNRHVANIVEKLREVKLSPEGQKVDHCARHGEKLLLFCQEDGKVICWLCERSQEHRGHHTFLTEEVAREYQVKLQAALEMLRQKQQEAEELEADIREEKASWKTQIQYDKTNVLADFEQLRDILDWEESNELQNLEKEEEDILKSLTNSETEMVQQTQSLRELISDLEHRLQGSVMELLQGVDGVIKRTENVTLKKPETFPKNQRRVFRAPDLKGMLEVFRELTDVRRYWVDVTVAPNNISCAVISEDKRQVSSPKPQIIYGAPGTLYTFQSFTNFNYCTGILGSQSITSGKHYWEVDVSKKTAWILGVCAGFQPDAMCNIEKNENYQPKYGYWVIGLEEGVKCSAFQDSSFHTPSVPFIVPLSVIICPDRVGVFLDYEACTVSFFNITNHGFLIYKFSHCSFSQPVFPYLNPRKCGVPMTLCSPSS [human TRIM5α, 330-340 = GAPGTLYTFQSFT] | 0.125 ± 0.021 |
| MASGILVNVKEEVTCPICLELLTQPLSLDCGHSFCQACLTANHKKSMLDKGESSCPVCRISYQPENIRPNRHVANIVEKLREVKLSPEGQKVDHCARHGEKLLLFCQEDGKVICWLCERSQEHRGHHTFLTEEVAREYQVKLQAALEMLRQKQQEAEELEADIREEKASWKTQIQYDKTNVLADFEQLRDILDWEESNELQNLEKEEEDILKSLTNSETEMVQQTQSLRELISDLEHRLQGSVMELLQGVDGVIKRTENVTLKKPETFPKNQRRVFRAPDLKGMLEVFRELTDVRRYWVDVTVAPNNISCAVISEDKRQVSSPKPQIIYGAPGTLFTFPSFTNFNYCTGILGSQSITSGKHYWEVDVSKKTAWILGVCAGFQPDAMCNIEKNENYQPKYGYWVIGLEEGVKCSAFQDSSFHTPSVPFIVPLSVIICPDRVGVFLDYEACTVSFFNITNHGFLIYKFSHCSFSQPVFPYLNPRKCGVPMTLCSPSS [human TRIM5α, 330-340 = GAPGTLFTFPSFT] | 33.7 ± 12 |
| MASGILVNVKEEVTCPICLELLTQPLSLDCGHSFCQACLTANHKKSMLDKGESSCPVCRISYQPENIRPNRHVANIVEKLREVKLSPEGQKVDHCARHGEKLLLFCQEDGKVICWLCERSQEHRGHHTFLTEEVAREYQVKLQAALEMLRQKQQEAEELEADIREEKASWKTQIQYDKTNVLADFEQLRDILDWEESNELQNLEKEEEDILKSLTNSETEMVQQTQSLRELISDLEHRLQGSVMELLQGVDGVIKRTENVTLKKPETFPKNQRRVFRAPDLKGMLEVFRELTDVRRYWVDVTVAPNNISCAVISEDKRQVSSPKPQIIYGAPGTRFQTLVNFNYCTGILGSQSITSGKHYWEVDVSKKTAWILGVCAGFQPDAMCNIEKNENYQPKYGYWVIGLEEGVKCSAFQDSSFHTPSVPFIVPLSVIICPDRVGVFLDYEACTVSFFNITNHGFLIYKFSHCSFSQPVFPYLNPRKCGVPMTLCSPSS [human TRIM5α, 330-340 = GAPGTRFQTLV] | 0.00361 ± 0.0015 |
| MASGILVNVKEEVTCPICLELLTQPLSLDCGHSFCQACLTANHKKSMLDKGESSCPVCRISYQPENIRPNRHVANIVEKLREVKLSPEGQKVDHCARHGEKLLLFCQEDGKVICWLCERSQEHRGHHTFLTEEVAREYQVKLQAALEMLRQKQQEAEELEADIREEKASWKTQIQYDKTNVLADFEQLRDILDWEESNELQNLEKEEEDILKSLTNSETEMVQQTQSLRELISDLEHRLQGSVMELLQGVDGVIKRTENVTLKKPETFPKNQRRVFRAPDLKGMLEVFRELTDVRRYWVDVTVAPNNISCAVISEDKRQVSSPKPQIIYQAPGTLFQTLVNFNYCTGILGSQSITSGKHYWEVDVSKKTAWILGVCAGFQPDAMCNIEKNENYQPKYGYWVIGLEEGVKCSAFQDSSFHTPSVPFIVPLSVIICPDRVGVFLDYEACTVSFFNITNHGFLIYKFSHCSFSQPVFPYLNPRKCGVPMTLCSPSS [human TRIM5α, 330-340 = QAPGTLFQTLV] | 0.0032 ± 0.0006 |
| MASGILVNVKEEVTCPICLELLTQPLSLDCGHSFCQACLTANHKKSMLDKGESSCPVCRISYQPENIRPNRHVANIVEKLREVKLSPEGQKVDHCARHGEKLLLFCQEDGKVICWLCERSQEHRGHHTFLTEEVAREYQVKLQAALEMLRQKQQEAEELEADIREEKASWKTQIQYDKTNVLADFEQLRDILDWEESNELQNLEKEEEDILKSLTNSETEMVQQTQSLRELISDLEHRLQGSVMELLQGVDGVIKRTENVTLKKPETFPKNQRRVFRAPDLKGMLEVFRELTDVRRYWVDVTVAPNNISCAVISEDKRQVSSPKPQIIYGAPGTRYTFPTFTNFNYCTGILGSQSITSGKHYWEVDVSKKTAWILGVCAGFQPDAMCNIEKNENYQPKYGYWVIGLEEGVKCSAFQDSSFHTPSVPFIVPLSVIICPDRVGVFLDYEACTVSFFNITNHGFLIYKFSHCSFSQPVFPYLNPRKCGVPMTLCSPSS [human TRIM5α, 330-340 = GAPGTRYTFPTFT] | 0.0845 ± 0.12 |

Same assay, conditions: library: insertions and deletions

| Sequence | enrichment |
| --- | --- |
| MASGILVNVKEEVTCPICLELLTQPLSLDCGHSFCQACLTANHKKSMLDKGESSCPVCRISYQPENIRPNRHVANIVEKLREVKLSPEGQKVDHCARHGEKLLLFCQEDGKVICWLCERSQEHRGHHTFLTEEVAREYQVKLQAALEMLRQKQQEAEELEADIREEKASWKTQIQYDKTNVLADFEQLRDILDWEESNELQNLEKEEEDILKSLTNSETEMVQQTQSLRELISDLEHRLQGSVMELLQGVDGVIKRTENVTLKKPETFPKNQRRVFRAPDLKGMLEVFRELTDVRRYWVDVTVAPNNISCAVISEDKRQVSSPKPQIIYGARGTRYQTFVNFNYCTGILGSQSCTGILGSQSITSGKHYWEVDVSKKTAWILGVCAGFQPDAMCNIEKNENYQPKYGYWVIGLEEGVKCSAFQDSSFHTPSVPFIVPLSVIICPDRVGVFLDYEACTVSFFNITNHGFLIYKFSHCSFSQPVFPYLNPRKCGVPMTLCSPSS [human TRIM5α, 9-codon duplication at 345] | 0.595 ± 0.43 |
| MASGILVNVKEEVTCPICLELLTQPLSLDCGHSFCQACLTANHKKSMLDKGESSCPVCRISYQPENIRPNRHVANIVEKLREVKLSPEGQKVDHCARHGEKLLLFCQEDGKVICWLCERSQEHRGHHTFLTEEVAREYQVKLQAALEMLRQKQQEAEELEADIREEKASWKTQIQYDKTNVLADFEQLRDILDWEESNELQNLEKEEEDILKSLTNSETEMVQQTQSLRELISDLEHRLQGSVMELLQGVDGVIKRTENVTLKKPETFPKNQRRVFRAPDLKGMLEVFRELTDVRRYWVDVTVAPNNISCAVISEDKRQVSSPKPQIIYGARGTGTRYQTFVNFNYCTGILGSQSITSGKHYWEVDVSKKTAWILGVCAGFQPDAMCNIEKNENYQPKYGYWVIGLEEGVKCSAFQDSSFHTPSVPFIVPLSVIICPDRVGVFLDYEACTVSFFNITNHGFLIYKFSHCSFSQPVFPYLNPRKCGVPMTLCSPSS [human TRIM5α, 2-codon duplication at 333] | 0.618 ± 0.38 |
| MASGILVNVKEEVTCPICLELLTQPLSLDCGHSFCQACLTANHKKSMLDKGESSCPVCRISYQPENIRPNRHVANIVEKLREVKLSPEGQKVDHCARHGEKLLLFCQEDGKVICWLCERSQEHRGHHTFLTEEVAREYQVKLQAALEMLRQKQQEAEELEADIREEKASWKTQIQYDKTNVLADFEQLRDILDWEESNELQNLEKEEEDILKSLTNSETEMVQQTQSLRELISDLEHRLQGSVMELLQGVDGVIKRTENVTLKKPETFPKNQRRVFRAPDLKGMLEVFRELTDVRRYWVDVTVAPNNISCAVISEDKRQVSSPKPQIIYGARGTRYQTFVNFNILGSQSITSGKHYWEVDVSKKTAWILGVCAGFQPDAMCNIEKNENYQPKYGYWVIGLEEGVKCSAFQDSSFHTPSVPFIVPLSVIICPDRVGVFLDYEACTVSFFNITNHGFLIYKFSHCSFSQPVFPYLNPRKCGVPMTLCSPSS [human TRIM5α, 4-codon deletion at 344] | 1.06 ± 0.67 |
| MASGILVNVKEEVTCPICLELLTQPLSLDCGHSFCQACLTANHKKSMLDKGESSCPVCRISYQPENIRPNRHVANIVEKLREVKLSPEGQKVDHCARHGEKLLLFCQEDGKVICWLCERSQEHRGHHTFLTEEVAREYQVKLQAALEMLRQKQQEAEELEADIREEKASWKTQIQYDKTNVLADFEQLRDILDWEESNELQNLEKEEEDILKSLTNSETEMVQQTQSLRELISDLEHRLQGSVMELLQGVDGVIKRTENVTLKKPETFPKNQRRVFRAPDLKGMLEVFRELTDVRRYWVDVTVAPNNISCAVISEDKRQVSSPKPQIIYGARGTRYQTFVTGILGSQSITSGKHYWEVDVSKKTAWILGVCAGFQPDAMCNIEKNENYQPKYGYWVIGLEEGVKCSAFQDSSFHTPSVPFIVPLSVIICPDRVGVFLDYEACTVSFFNITNHGFLIYKFSHCSFSQPVFPYLNPRKCGVPMTLCSPSS [human TRIM5α, 5-codon deletion at 341] | 1.89 ± 2 |
| MASGILVNVKEEVTCPICLELLTQPLSLDCGHSFCQACLTANHKKSMLDKGESSCPVCRISYQPENIRPNRHVANIVEKLREVKLSPEGQKVDHCARHGEKLLLFCQEDGKVICWLCERSQEHRGHHTFLTEEVAREYQVKLQAALEMLRQKQQEAEELEADIREEKASWKTQIQYDKTNVLADFEQLRDILDWEESNELQNLEKEEEDILKSLTNSETEMVQQTQSLRELISDLEHRLQGSVMELLQGVDGVIKRTENVTLKKPETFPKNQRRVFRAPDLKGMLEVFRELTDVRRYWVDVTVAPNNISCAVISEDKRQVSSPARGTRYQTFVNFNYCTGILGSQSITSGKHYWEVDVSKKTAWILGVCAGFQPDAMCNIEKNENYQPKYGYWVIGLEEGVKCSAFQDSSFHTPSVPFIVPLSVIICPDRVGVFLDYEACTVSFFNITNHGFLIYKFSHCSFSQPVFPYLNPRKCGVPMTLCSPSS [human TRIM5α, 7-codon deletion at 324] | 0.854 ± 0.25 |
| MASGILVNVKEEVTCPICLELLTQPLSLDCGHSFCQACLTANHKKSMLDKGESSCPVCRISYQPENIRPNRHVANIVEKLREVKLSPEGQKVDHCARHGEKLLLFCQEDGKVICWLCERSQEHRGHHTFLTEEVAREYQVKLQAALEMLRQKQQEAEELEADIREEKASWKTQIQYDKTNVLADFEQLRDILDWEESNELQNLEKEEEDILKSLTNSETEMVQQTQSLRELISDLEHRLQGSVMELLQGVDGVIKRTENVTLKKPETFPKNQRRVFRAPDLKGMLEVFRELTDVRRYWVDVTVAPNNISCAVISEDKRQVSSPKPQIIYGAARGTRYQTFVNFNYCTGILGSQSITSGKHYWEVDVSKKTAWILGVCAGFQPDAMCNIEKNENYQPKYGYWVIGLEEGVKCSAFQDSSFHTPSVPFIVPLSVIICPDRVGVFLDYEACTVSFFNITNHGFLIYKFSHCSFSQPVFPYLNPRKCGVPMTLCSPSS [human TRIM5α, 1-codon duplication at 331] | 0.3 ± 0.085 |
| MASGILVNVKEEVTCPICLELLTQPLSLDCGHSFCQACLTANHKKSMLDKGESSCPVCRISYQPENIRPNRHVANIVEKLREVKLSPEGQKVDHCARHGEKLLLFCQEDGKVICWLCERSQEHRGHHTFLTEEVAREYQVKLQAALEMLRQKQQEAEELEADIREEKASWKTQIQYDKTNVLADFEQLRDILDWEESNELQNLEKEEEDILKSLTNSETEMVQQTQSLRELISDLEHRLQGSVMELLQGVDGVIKRTENVTLKKPETFPKNQRRVFRAPDLKGMLEVFRELTDVRRYWVDVTVAPNNISCAVISEDKRQVSSPKPQIIYGRYQTFVNFNYCTGILGSQSITSGKHYWEVDVSKKTAWILGVCAGFQPDAMCNIEKNENYQPKYGYWVIGLEEGVKCSAFQDSSFHTPSVPFIVPLSVIICPDRVGVFLDYEACTVSFFNITNHGFLIYKFSHCSFSQPVFPYLNPRKCGVPMTLCSPSS [human TRIM5α, 4-codon deletion at 331] | 1.27 ± 0.34 |
